The supplement of paper PMC12423691
The list shows a part of the results. Binding of human transcription factors and regulators to the viral nucleoprotein by AlphaScreen, crude cell-free proteins, amounts not normalised, one pass. Fold of the Venus control; higher = more signal. No active / inactive call. Single-pass screen; sequences are the whole Swiss-Prot entries looked up by name.

B1: NFX1, Q12986 (protein)
chain: MAEAPPVSGTFKFNTDAAEFIPQEKKNSGLNCGTQRRLDSNRIGRRNYSSPPPCHLSRQVPYDEISAVHQHSYHPSGSKPKSQQTSFQSSPCNKSPKSHGLQNQPWQKLRNEKHHIRVKKAQSLAEQTSDTAGLESSTRSESGTDLREHSPSESEKEVVGADPRGAKPKKATQFVYSYGRGPKVKGKLKCEWSNRTTPKPEDAGPESTKPVGVFHPDSSEASSRKGVLDGYGARRNEQRRYPQKRPPWEVEGARPRPGRNPPKQEGHRHTNAGHRNNMGPIPKDDLNERPAKSTCDSENLAVINKSSRRVDQEKCTVRRQDPQVVSPFSRGKQNHVLKNVETHTGSLIEQLTTEKYECMVCCELVRVTAPVWSCQSCYHVFHLNCIKKWARSPASQADGQSGWRCPACQNVSAHVPNTYTCFCGKVKNPEWSRNEIPHSCGEVCRKKQPGQDCPHSCNLLCHPGPCPPCPAFMTKTCECGRTRHTVRCGQAVSVHCSNPCENILNCGQHQCAELCHGGQCQPCQIILNQVCYCGSTSRDVLCGTDVGKSDGFGDFSCLKICGKDLKCGNHTCSQVCHPQPCQQCPRLPQLVRCCPCGQTPLSQLLELGSSSRKTCMDPVPSCGKVCGKPLPCGSLDFIHTCEKLCHEGDCGPCSRTSVISCRCSFRTKELPCTSLKSEDATFMCDKRCNKKRLCGRHKCNEICCVDKEHKCPLICGRKLRCGLHRCEEPCHRGNCQTCWQASFDELTCHCGASVIYPPVPCGTRPPECTQTCARVHECDHPVYHSCHSEEKCPPCTFLTQKWCMGKHEFRSNIPCHLVDISCGLPCSATLPCGMHKCQRLCHKGECLVDEPCKQPCTTPRADCGHPCMAPCHTSSPCPVTACKAKVELQCECGRRKEMVICSEASSTYQRIAAISMASKITDMQLGGSVEISKLITKKEVHQARLECDEECSALERKKRLAEAFHISEDSDPFNIRSSGSKFSDSLKEDARKDLKFVSDVEKEMETLVEAVNKGKNSKKSHSFPPMNRDHRRIIHDLAQVYGLESVSYDSEPKRNVVVTAIRGKSVCPPTTLTGVLEREMQARPPPPIPHHRHQSDKNPGSSNLQKITKEPIIDYFDVQD
B2: ELF2, Q15723 (protein)
chain: MTSAVVDSGGTILELSSNGVENQEESEKVSEYPAVIVEPVPSARLEQGYAAQVLVYDDETYMMQDVAEEQEVETENVETVEASVHSSNAHCTDKTIEAAEALLHMESPTCLRDSRSPVEVFVPPCVSTPEFIHAAMRPDVITETVVEVSTEESEPMDTSPIPTSPDSHEPMKKKKVGRKPKTQQSPISNGSPELGIKKKPREGKGNTTYLWEFLLDLLQDKNTCPRYIKWTQREKGIFKLVDSKAVSKLWGKHKNKPDMNYETMGRALRYYYQRGILAKVEGQRLVYQFKDMPKNIVVIDDDKSETCNEDLAGTTDEKSLERVSLSAESLLKAASSVRSGKNSSPINCSRAEKGVARVVNITSPGHDASSRSPTTTASVSATAAPRTVRVAMQVPVVMTSLGQKISTVAVQSVNAGAPLITSTSPTTATSPKVVIQTIPTVMPASTENGDKITMQPAKIITIPATQLAQCQLQTKSNLTGSGSINIVGTPLAVRALTPVSIAHGTPVMRLSMPTQQASGQTPPRVISAVIKGPEVKSEAVAKKQEHDVKTLQLVEEKPADGNKTVTHVVVVSAPSAIALPVTMKTEGLVTCEK
B3: MYF5, P13349 (protein)
chain: MDVMDGCQFSPSEYFYDGSCIPSPEGEFGDEFVPRVAAFGAHKAELQGSDEDEHVRAPTGHHQAGHCLMWACKACKRKSTTMDRRKAATMRERRRLKKVNQAFETLKRCTTTNPNQRLPKVEILRNAIRYIESLQELLREQVENYYSLPGQSCSEPTSPTSNCSDGMPECNSPVWSRKSSTFDSIYCPDVSNVYATDKNSLSSLDCLSNIVDRITSSEQPGLPLQDLASLSPVASTDSQPATPGASSSRLIYHVL
B4: HINFP, Q9BQA5 (protein)
chain: MPPPGKVPRKENLWLQCEWGSCSFVCSTMEKFFEHVTQHLQQHLHGSGEEEEEEEEDDPLEEEFSCLWQECGFCSLDSSADLIRHVYFHCYHTKLKQWGLQALQSQADLGPCILDFQSRNVIPDIPDHFLCLWEHCENSFDNPEWFYRHVEAHSLCCEYEAVGKDNPVVLCGWKGCTCTFKDRSKLREHLRSHTQEKVVACPTCGGMFANNTKFLDHIRRQTSLDQQHFQCSHCSKRFATERLLRDHMRNHVNHYKCPLCDMTCPLPSSLRNHMRFRHSEDRPFKCDCCDYSCKNLIDLQKHLDTHSEEPAYRCDFENCTFSARSLCSIKSHYRKVHEGDSEPRYKCHVCDKCFTRGNNLTVHLRKKHQFKWPSGHPRFRYKEHEDGYMRLQLVRYESVELTQQLLRQPQEGSGLGTSLNESSLQGIILETVPGEPGRKEEEEEGKGSEGTALSASQDNPSSVIHVVNQTNAQGQQEIVYYVLSEAPGEPPPAPEPPSGGIMEKLQGIAEEPEIQMV
B5: PPARA, Q07869 (protein)
chain: MVDTESPLCPLSPLEAGDLESPLSEEFLQEMGNIQEISQSIGEDSSGSFGFTEYQYLGSCPGSDGSVITDTLSPASSPSSVTYPVVPGSVDESPSGALNIECRICGDKASGYHYGVHACEGCKGFFRRTIRLKLVYDKCDRSCKIQKKNRNKCQYCRFHKCLSVGMSHNAIRFGRMPRSEKAKLKAEILTCEHDIEDSETADLKSLAKRIYEAYLKNFNMNKVKARVILSGKASNNPPFVIHDMETLCMAEKTLVAKLVANGIQNKEAEVRIFHCCQCTSVETVTELTEFAKAIPGFANLDLNDQVTLLKYGVYEAIFAMLSSVMNKDGMLVAYGNGFITREFLKSLRKPFCDIMEPKFDFAMKFNALELDDSDISLFVAAIICCGDRPGLLNVGHIEKMQEGIVHVLRLHLQSNHPDDIFLFPKLLQKMADLRQLVTEHAQLVQIIKKTESDAALHPLLQEIYRDMY
B6: NFKBIL1, Q9UBC1 (protein)
chain: MSNPSPQVPEEEASTSVCRPKSSMASTSRRQRRERRFRRYLSAGRLVRAQALLQRHPGLDVDAGQPPPLHRACARHDAPALCLLLRLGADPAHQDRHGDTALHAAARQGPDAYTDFFLPLLSRCPSAMGIKNKDGETPGQILGWGPPWDSAEEEEEDDASKEREWRQKLQGELEDEWQEVMGRFEGDASHETQEPESFSAWSDRLAREHAQKCQQQQREAEGSRRPPRAEGSSQSWRQQEEEQRLFRERARAKEEELRESRARRAQEALGDREPKPTRAGPREEHPRGAGRGSLWRFGDVPWPCPGGGDPEAMAAALVARGPPLEEQGALRRYLRVQQVRWHPDRFLQRFRSQIETWELGRVMGAVTALSQALNRHAEALK

target: nucleoprotein N of Crimean-Congo hemorrhagic fever virus; test: AlphaScreen luminescence signal relative to Venus negative control (fold); higher = stronger binding to CCHFV N
Experimental: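 AlphaScreen binding of cell-free made, FLAG-GST-tagged human transcription factors and regulators (crude translation products) to biotinylated N protein; signal as fold of the FLAG-GST-Venus control. One pass.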

Binder	AlphaScreen luminescence signal
B1	2.47
B2	2.6
B3	3.21
B4	2
B5	2.42
B6	4.14
